Source: PubChem BioAssay AID493208 (National Center for Advancing Translational Sciences (NCATS), 2011)
The campaign covered roughly 44,000 compounds. About 340 (0.77%) were called active. Not shown: some 5% with an inconclusive outcome. Calls come from the whole dose curve; as a rule, active = well fitted inhibition curve with a large enough effect; inconclusive = small, poorly fitted or top-dose-only effect; inactive = flat fitted curve, though single readings scatter. Some of the results follow.

Assay: Acumen qHTS Assay for Inhibitors of the mTORC1 Signaling Pathway in MEF (Tsc2-/-, p53-/-) Cells: Sytravon;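 note: plate controls were DMSO for no effect and rapamycin for full effect; nearly all actives have a fitted effect of over 50% in size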
Conditions: phospho-rpS6 immunofluorescence/PI, 24 h; series mostly up to 38.3 µM; activity change, negative = inhibition: at the top concentration
Procedure, shortened: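 Cell-based qHTS: Tsc2-/- p53-/- MEF, 24 h cpd, 37 °C; fix/perm, anti-phospho-S6 Alexa-488 + PI; Acumen 488 nm scan; pS6/PI ratio, % positive cells; rapamycin 7.5 nM = inhibition ref; PI count = viability.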

Activity change, negative = inhibition, inactive:
CCC1=C(c2ccc(C)cc2)S(=O)(=O)N=C1N1CCC(C(=O)NCCc2ccc(Cl)cc2)CC1 -17.8%
Cc1ccc(S(=O)(=O)C(CNC(=O)C(=O)NCCc2ccc(Cl)cc2)c2cccs2)cc1 (stereo unspecified) -4.09%
CCCS(=O)(=O)N1CC(=O)N(c2ccc(C)cc2C)C(C)(C(=O)NC2CCCCCC2)C1 (stereo unspecified) 2.72%
O=C(Cn1c(=O)nc(-c2ccccc2)c2cc(Cl)ccc21)NCc1ccc(Cl)cc1 1.63%
CCOc1ccc(CCNC(=O)c2ccc3c(c2)N(Cc2ccccc2F)C(=O)c2ccccc2S3=O)cc1OCC (stereo unspecified) -9.24%
COc1ccc(CCNS(=O)(=O)c2cc(-c3onc(C)c3C)ccc2OC)cc1OC -3.21%
O=C(CCS(=O)(=O)c1cc2c3c(c1)CCN3C(=O)CC2)Nc1cccc(Br)c1 -7.25%
O=C(Nc1cnn(Cc2ccc(Cl)cc2Cl)c1)c1noc2c1CCc1ccccc1-2 -6.66%
COc1ccc(C(CC(=O)Nc2cc(OC)c(OC)c(OC)c2)N2Cc3ccccc3C2=O)cc1 (stereo unspecified) -0.463%
Cc1ccc(C)c(Nc2nn3c(=O)c4cc5c(cc4nc3s2)OCO5)c1 -1.46%
CCc1ccc(NC(=O)CSc2nc(=O)n(Cc3ccncc3)c3c2CCC3)cc1 2%
CCN1CCN(CCCNC(=O)Cn2c(-c3cccs3)cc3cc(F)ccc32)CC1 -1.55%
O=C(COCc1cc(-c2ccc3c(c2)OCO3)on1)Nc1cc(C(F)(F)F)ccc1Cl -0.359%
Cc1cc2c(cc1S(=O)(=O)CCC(=O)N1CCCCC1C)OCC(=O)N2 (stereo unspecified) -0.121%
CCOC(=O)N1CCc2c(sc(NCc3cccs3)c2C(=O)Nc2ccc(OC)cc2OC)C1 0.808%
COc1ccccc1N1CCN(S(=O)(=O)CCNC(=O)Cc2ccc(Cl)cc2)CC1 2.51%
O=c1c(S(=O)(=O)c2ccccc2)cn(Cc2cccc(F)c2)c2cc(N3CCCC3)c(F)cc12 -4.92%
Cn1c(=O)c2c(nc(N3CCOCC3)n2Cc2ccccc2Cl)n(C)c1=O 3.91%
CC(C)Cn1c(-c2ccccc2Cl)nc2ccccc21 -7.89%
O=C(NCCc1ccc(Cl)cc1)c1nnc(Cc2ccc(Cl)cc2Cl)o1 3.21%
Cc1nc(S(=O)(=O)N2CCN(c3cccc(Cl)c3)CC2)cn1C -0.355%
COc1cc(OC)cc(-c2nnc(SCC(=O)c3ccc([N+](=O)[O-])cc3)o2)c1 -3.05%
O=C(NCCc1ccc(Cl)cc1)c1ccc2nc(CCc3ccccc3)oc2c1 4.21%
COc1ccc(N(CC(=O)NCCc2ccc(C)cc2)S(=O)(=O)c2c(C)nn(C)c2C)cc1 -1.97%
CC(C)Cn1c(CN2CCN(c3cccc(Cl)c3)CC2)nc2c1c(=O)[nH]c(=O)n2C -22%
COc1cc(Nc2nn(-c3ccc(OC(F)(F)F)cc3)nc2C(C)=O)cc(OC)c1 2.53%
CCOC(=O)c1cc(-c2ccc(OC)cc2)n(CCC(=O)Nc2cccc(C)c2C)c1C -0.575%
CCCCc1nn2c(=O)cc(COC(=O)c3ccc4c(c3)OCO4)nc2s1 -1.13%
COc1cc(OC)cc(-n2c(=O)c3ccccc3n(Cc3ccccc3C#N)c2=O)c1 1.74%
COc1ccccc1C(=O)NCC(c1ccc(N(C)C)cc1)N1CCc2ccccc21 (stereo unspecified) 0%
COC(=O)c1ccccc1NC(=O)Cn1nnc(-c2ccc(OC)cc2)n1 0.698%
CCOc1ccc(-c2cn3c(n2)sc2cc(C(=O)NCCCN4CCCCC4)ccc23)cc1 2.45%
CC1=C(C(=O)Nc2ccccc2)C(C(C)C)n2nc(SCc3ccccc3C)nc2N1 (stereo unspecified) -9.91%
CCC(=O)Nc1cc(-c2cn3cccnc3n2)ccc1OC 5.51%
CCc1ccc(NC(=O)Cn2nc(C(F)(F)F)c3c2CCCC3)cc1 3.48%
COc1cc(NC(=O)c2ccc(-c3nc(CSc4ccccc4)c(C)o3)cc2)cc(OC)c1 -7.26%
O=C(Cn1ncn2cccc2c1=O)NCc1cccc(Br)c1 1.28%
COc1ccc(N(CC(C)C)S(=O)(=O)c2nnc(NC(=O)c3ccco3)s2)cc1 -10.5%
Cc1c(Cl)cccc1NC(=O)Cn1c(=O)cc(C)c2c(C)nn(-c3cccc(F)c3)c21 -14.9%
COc1ccc(NC(=O)c2cc(-c3ccc(F)cc3)no2)cc1OC 6.19%
COc1ccccc1Cc1nc2ccccc2nc1SCC(=O)Nc1c(C)cccc1C 8.51%
Cc1cc(NC(=O)c2ccco2)cc(-c2nc3ccccc3o2)c1O -0.128%
CCCNC(=O)Cn1nc(-c2ccc(C)cc2)c2cnc3ccc(CC)cc3c21 -0.244%
CCn1c(C)c(C)c2cc(C(=O)N3CCN(c4ccccc4)CC3)ccc21 5.05%
CCN(C(=O)CCS(=O)(=O)c1cc2c(cc1C)NC(=O)CO2)c1cccc(C)c1 6.69%
CN(C)CCN(Cc1ccccc1)S(=O)(=O)c1csc(C(N)=O)c1 3.82%
Cc1ccc(Cl)cc1NC(=O)CN1C(=O)c2ccccc2Sc2ncccc21 -8.21%
Cc1ccc(CNS(=O)(=O)c2c(C)nc3sc(C)cn3c2=O)cc1 3.18%
CCc1ccc(-c2nc(CS(=O)CC(=O)NCc3ccc(F)cc3)c(C)o2)cc1 (stereo unspecified) -5.64%
COc1ccc(CCNC(=O)c2ccc3c(c2)nc2n3CCCCC2)cc1OC -13.9%
CCCn1cnc2cc(NC(=O)c3cc(OC)c(OC)c(OC)c3)ccc21 -6.25%
Cc1cccc(N2CCN(Cc3nnc(-c4cccc(Br)c4)o3)CC2)c1C 5.51%
CCCOC(=O)c1cccc(NC(=O)CSc2nnc3cc(C)c4ccccc4n23)c1 -10.1%
CC(=O)c1ccc(NC(=O)c2nc(-c3ccccc3)n(-c3ccc(C)cc3)n2)cc1 1.38%
O=C(NCc1cccc(Cl)c1)C1CCCN(c2nn3cc(-c4ccc(F)cc4)nc3s2)C1 (stereo unspecified) 1.84%
Clc1ccc2nc(-c3ccc(N4CCOCC4)cc3)c(Nc3ccccc3)n2c1 1.32%
COc1ccccc1NC(=O)Cn1c(=O)oc2cc(S(=O)(=O)NCc3ccccc3)ccc21 -6.03%
CCc1ccccc1N(C)C(=O)c1nn(-c2ccc(OC)cc2)c(=O)c2c1c1ccccc1n2C -0.403%
Cc1cccc(NC(=O)c2ccc3oc(=O)c(S(=O)(=O)c4ccc(F)cc4)cc3c2)c1C 3.86%
CCOc1ccc(CNc2cc(C)nc3nc(-c4cccc(C)c4)nn23)cc1OC -0.893%
CCOc1ccc(S(=O)(=O)c2cc3cccc(OCC)c3oc2=O)cc1 -12.2%
